{"source": "patent US20100204155A1", "about": "“USE OF THE PEPTIDE SFLLR-OH AND MURAMYL DIPEPTIDE AS THERAPEUTIC AGENTS” (priority 2007, published 2010)", "tested_on": "RAW 264.7 (Mouse leukaemic monocyte macrophage cell line) cells", "experiment": "Phagocytosis assay (Fluorescein-labeled Escherichia coli, flow cytometry)", "details": "10 micrograms per ml; RAW 264.7 cells; combination peptide 1:peptide 2 1.10 mole:0.90 mole", "note": "Where no end group is shown, it is not given here."}
{"substance": "Ac-muramyl-Ala-D-Glu-NH2 [Peptide 2]", "values": [{"measurement": "increase on the phagocytic activity of murine macrophages", "result": 40.9, "unit": "%"}]}
{"substance": "Ser-Phe-Leu-Leu-Arg-OH (SFLLR-OH) [Peptide 1]", "values": [{"measurement": "increase on the phagocytic activity of murine macrophages", "result": 42.9, "unit": "%"}]}
